Data from PubChem BioAssay AID504706 (National Center for Advancing Translational Sciences (NCATS), 2011).
The whole screen tested about 320,000 compounds, of which about 200 (0.062%) were called active. The shares of active, inactive and inconclusive entries below differ from those in the screen. The call rests on the fitted dose curve; in most records, active means well fitted activation curve with a large enough effect; inconclusive means small, poorly fitted or top-dose-only effect; inactive means no such curve, though single readings can be large or run the other way. Potencies of inconclusive entries are left out as doubtful fits.

Assay: qHTS assay for re-activators of p53 using a Luc reporter; further: nearly all actives have a fitted effect of over 45% in size
Details: H1299 p53-A138V BP100-luciferase reporter, luminescence, 24 h; series mostly up to 92.2 µM
Procedure, shortened: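 H1299 (p53-null), stable ts p53-A138V + BP100-Luc; 1000 cells/well, Opti-MEM/10% FBS; cpd 4 pt, 1:5; 24 h, 37 deg C, 5% CO2; detection reagent 10 min RT; luminescence.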
Potency means the concentration at half of the fitted maximal effect; tags describe the fitted curve by direction and shape.

SMILES	Potency
Cc1cc(C)nc(Nc2n[nH]c(-c3ccc(N)cc3)n2)n1	inconclusive [activator, full curve, poor fit]
CCn1c(SCC(=O)N2CCOCC2)nnc1C(C)NC(=O)c1ccccc1 (stereo not given)	inconclusive [activator, single point]
Cc1ccccc1CCN1CCCC(CN(C)CC(C)(C)C)C1 (stereo not given)	inconclusive [activator, single point]
O=C1N(c2ccccc2)CCN1c1ccccc1	inconclusive [activator, partial curve, poor fit]
CC(C)n1c(NCc2cc(Cl)ccc2O)nc2ccccc21	inactive
Cc1cc(/C=C2\SC(=S)N(C)C2=O)c(C)n1-c1cccc(O)c1	inconclusive [activator, full curve, poor fit]
Cc1ccc(Nc2nc(N)nc(CC#N)n2)cc1	inconclusive [activator, partial curve, poor fit]
CCOc1ccc2nc(N3CCC(C(=O)N4CCN(C5CCCCC5)CC4)CC3)sc2c1	inconclusive [activator, full curve, poor fit]
CCC(CC)NC(=O)C1CC(=O)N(CCc2ccc(F)cc2)C1 (stereo not given)	inconclusive [activator, single point]
Cc1ccsc1/C=N/N=C1\C(=O)Nc2ccccc21	inactive
CCOc1ccccc1CNC(=O)c1cc2oc3ccccc3c2n1CC	inactive
CCc1nnc(NC(=O)CSc2nc(-c3ccccc3)cc(-c3ccc(OC)cc3)c2C#N)s1	inactive
COc1cccc(NC(=O)CNC(=O)c2cccs2)c1	inconclusive [activator, single point]
COc1ccc2c(CC(=O)Nc3ncc(C)s3)coc2c1	inconclusive [activator, partial curve, poor fit]
CCOC(=O)C(C)Sc1ncnc2c1nnn2-c1ccc(F)cc1 (stereo not given)	inconclusive [activator, partial curve, poor fit]
Cc1cccc(NC(=S)NCc2ccc3c(c2)cc(C)n3C)c1C	inactive
O=C(CN1CCCCC1)Nc1ccc(S(=O)(=O)N2CCCCCC2)cc1	inconclusive [activator, single point]
CCC(C)Sc1cccc(-c2nc3cc(C)ccn3c2NCc2ccccc2)c1 (stereo not given)	inactive
O=C(NCCn1cccn1)C1CCC(=O)N(CCc2ccccc2)C1 (stereo not given)	inactive
Cc1ccccc1Nc1nc2ccccc2s1	inconclusive [activator, partial curve, poor fit]
